Experimental findings from PMC10726135 are described below.

This is one part of the list. At the low end of the ranking the order means little. Measured with an extract: partners may take part in the binding.

The assay concerns the target T1, HNF4alpha2 (COS-7 nuclear extract) (UniProt P41235).
T1 sequence: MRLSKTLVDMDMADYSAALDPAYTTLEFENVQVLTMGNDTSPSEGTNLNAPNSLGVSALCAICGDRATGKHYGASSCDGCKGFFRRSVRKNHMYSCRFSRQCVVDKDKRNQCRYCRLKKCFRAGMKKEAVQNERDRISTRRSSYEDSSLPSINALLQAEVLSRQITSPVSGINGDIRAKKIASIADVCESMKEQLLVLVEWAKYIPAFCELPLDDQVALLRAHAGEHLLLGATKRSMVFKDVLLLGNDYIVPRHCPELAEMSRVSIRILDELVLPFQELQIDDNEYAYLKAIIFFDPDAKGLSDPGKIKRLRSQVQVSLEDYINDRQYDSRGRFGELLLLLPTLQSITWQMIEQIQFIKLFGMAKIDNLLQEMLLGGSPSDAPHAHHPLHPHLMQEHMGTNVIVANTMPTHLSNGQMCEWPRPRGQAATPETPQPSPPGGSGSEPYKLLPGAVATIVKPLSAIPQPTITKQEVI
The assay can be described thus: protein-binding microarray. Particulars: COS-7 nuclear extract on double-stranded Agilent 4x180k PBM; binding buffer, salt, pH and temperature not given; high values mean tight binding; double strand, one strand shown; sequences stand for … in …GCCTAGGGAGATTAGAGTATCGGTCGA
Turning to GCAGAGCTATGGAATTTTGGCCTTTTTGTC, the binding signal (log2 normalized intensity) was determined as 1.41.

On to CTATTGGTTGTCAGACTGGTGTAGTGGGGA, for which the binding signal (log2 normalized intensity) came to 1.57.

Consider ATGTTCTAACCATAGGAGGCTGGTCTAAGT, for which the binding signal (log2 normalized intensity) is -0.115. Then CTTTCATCTCGGCTGGCTACTGCTCCACCT, with -1.15; and AGGTCATCCTGGGCTACCGATATGAGGCTT, with -1.06. With ACAATTGGCCAAAGTTCAGTAAATCTTAGA the figure was 2.24. With TCTGTTATCAGACACAAGAATTACTACTCT the figure was -0.959. As for CCTCACCTCCAGGGAGGGGAGAGGGGGTTA, the binding signal (log2 normalized intensity) was -1.07. Then AAATATAGTTAAAGCCAGCTGTCTATCCTT, with -1.15; and GTTCCACTGGTAACTAGGTTAATGTGAACA, with 0.933; and AGGTAATAGGAAAAGGGAGTTTTCTGCTCT, with -1.11. Then ATCACTGAAGCGACCCCTCGAGGCAACCTT, with 1.12; and CTAGTGATGTGGAAATCTGGACTCAGCAGA, with 1.46. With CAGTAGGAGTTGGAACGGGGGCAAGGGTCA the figure was 5.21. With GGCCATCTAGCTACAGGAGAACAAAGTTCA, the binding signal (log2 normalized intensity) was determined as 3.08. Then GGAGTAGTCAAATTTGTCTAGCGCAAATGA, with -1.18; and CAGGCGGAGCACACCAGGCCCTCGGCATCA, with -1.08.

Take CCACATTCTGAGACTAAAGAGTACACAAAG: the binding signal (log2 normalized intensity) is -0.922.

Consider TACTCATGTGGTCCTAAGACTAACCTTTGA, for which the binding signal (log2 normalized intensity) came to 6.33. Then TCCTGGGAGAGAAAAGCAAGATTGGGAGCT, with -0.855.

As to GCAAATGTGTCTTTTTTAGTCAGCATAGTT, the binding signal (log2 normalized intensity) was determined as 1.83.

Regarding GCACTTTGCACCTGGGCTGGAAAGGCCACC, the binding signal (log2 normalized intensity) was 2.49. Then CCCATGCCCTTAGCCACTGCATGATAGGCC, with -0.635; and ACAATGCCTTGTGTACTGAGCAGGGTCCAA, with 3.13. Take TCCTCTCCTACTTCTGTTTAAACTGATAAC: the binding signal (log2 normalized intensity) stood at 1.39.

Take AGAGTGATCTTTGGGCCATATTGACTAAAC: the binding signal (log2 normalized intensity) was found to be 0.454. Then CCTATGGTCTGTTCACTTGCCAAGCCTAGT, with -1.02; and GATGGGGTCATGATAAGAGCAGAGACAGGC, with -0.866; and TATTTACTGTCCTCAAACTGTCACCTGCCC, with 0.664.

For TGGAGAGAATTCCCATCCCACTAGGTGGCG, the binding signal (log2 normalized intensity) is -1.19. With GCGAGAACTTACTTTTGGCCATCGCACGAG the figure was -1.17; with GGAGAAGGAAAAAAATAGGAGACTGTCTTA, -1.1; with AGCTCCGACTCAGTGGGGGGGGGGGGGGGG, -1.15.

For TAAAGATTATGAACTAATTTGTCTTTTCTC, the binding signal (log2 normalized intensity) was -0.653. With CATTGGACCCTCCCAGCCAAACCCCACTCC the figure was 5.01. As for GTCCAAGATGGCAATGTTCCTGCTCTGTCA, the binding signal (log2 normalized intensity) was -0.996. Then CCAAGGGTATGTTTGTGATATTGTGAAATA, with 1.92; and ACATGAGGGACTGGGAAGAGAAGGTGAACT, with -0.161; and CACCAATGATCAAAGGTTAGTCTTAGGACC, with 3.04. As for TCTGGTGTTCTCTTGGCCAACAACTAGGGC, the binding signal (log2 normalized intensity) was -0.975. With TTAACTGGAGATAACACAACCCCTACTGTA the figure was 1.18.

As to AGAGTGGCCTTTGGAATCAAACAGATGTAG, the binding signal (log2 normalized intensity) was 2.01. With GAGGTGTCCTGTAAATAGTGTGTCAGGGAA the figure was 1.15; with GTCGGGCGGACGGGGAACCCAGCAAACCTG, -1.24. With GCTGCCAGAGGGTGGCAGCAGCAGGCAGGG the figure was 2.23. With AAGTGACCCTGGTCTTTGCCCTTTCCTAGA the figure was 3.39; with GGGAGGAGTTCAGATCACAAAGGAGCTTGT, -0.858.

With CCCTCTCCCACTCCCCTCCTCCAGATGGGC, the binding signal (log2 normalized intensity) was found to be 4.7.

For the sequence ATGGGGGATGGGGCCTGGGAGATAAGGGTT, the binding signal (log2 normalized intensity) is -1.12. Take TCATCCGCATCTGAAGATAAGAGAAGTTGC: the binding signal (log2 normalized intensity) is -0.83. Then GGCAAGTGGTCATGTAGGTGTCTCAGGAAT, with 1.41. TCAGCCTTAACTCAAAAGGCCAAAGTCCAA: the binding signal (log2 normalized intensity) is 8.38. Then TCCCTCACTGGAGGTTGAATTCCAAAGGTT, with 3.42. With CTGGGACGTGGCTCAAGATTACAGGTGATC the figure was 1.08; with GGTAGTGGACTCTAAGGCAAAACACCCCTT, 2.22. With GGACTAAGAATTGCTCAACCTGGACCTCAT the figure was 1.14; with CATGAAGCTTCCCCTTTAACCAATATTAGC, 0.498; with TGAACTACACAGATTCTGCAAACCTATTAA, -1.15.

With GGGCCGGTACAAAAGGCCAAAGCCAGGGGA, the binding signal (log2 normalized intensity) was -1.1.

CTTGCCGCATTCCCAGCATTCCAAGTGAGT: the binding signal (log2 normalized intensity) is -1.08. Then TTAGTTCTGCAAACACCCCTCCCCCACACA, with 5.55; and CCCAGCTTTCATCTCGGCTGGCTACTGCTC, with -0.8. Take GAAACTCACATACTGTGGACATAAAAAGAT: the binding signal (log2 normalized intensity) was -0.728. As for TCCCACTAGGTGGCGCTGTTGACCTTGAAA, the binding signal (log2 normalized intensity) was 3.09. Then ATCTCTGCTCATAATGCCAGGCAGGAAGGA, with -1.07.

AGACCTCCCCCAACTTACTTAGTGGCTCCT: the binding signal (log2 normalized intensity) came out at 2.37.

On to ATTATGAACTAATTTGTCTTTTCTCCCCCG, for which the binding signal (log2 normalized intensity) was found to be 4.3. GGCCACTCCCTGGGCAGTGCAGTATGCGCT: the binding signal (log2 normalized intensity) was -1.15.

Regarding AGGTGAACCAGGGTGCAATTCGCATTTCTG, the binding signal (log2 normalized intensity) is -1.08. Then AGGGAATGTAAGGCACTTTATCTAGATAAG, with -0.692. With GGAGCATGGGGGATGGGGCCTGGGAGATAA the figure was -1.11; with TTATCACTTTGTAATGTCCCTCTTTATCTC, 1.65.
